The source of these data is paper PMC12136788.

The list shows a part of the results.

Sequences and labels used below:
T1: UNK ZnF1-3 (human, UniProt Q9C0B0 31-174)
T1 sequence: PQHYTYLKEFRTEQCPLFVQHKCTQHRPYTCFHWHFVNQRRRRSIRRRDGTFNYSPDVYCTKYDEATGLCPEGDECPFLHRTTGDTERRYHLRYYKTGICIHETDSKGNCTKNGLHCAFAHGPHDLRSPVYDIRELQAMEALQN

B1: chr1:120459247:120459248:-_ENSG00000134250_ENST00000256646|hu_mus|motif|central (ssRNA)
RNA: GGGAGUUCUACAGUCCGACGAUCCCGAGCCACAUCCCGGGGAAGGCGGUCCAUGUGGUCAGUGAUGUCCCGGUUGGCAAAAUGGUCGGACAGGAUUUUGGCCGCUUCAUAACUUCCCUCUCGGGCAGCAAGAAACAAAGGUGUCAACAGAGGAUUGAGCAUCA
B2: chr19:36946997:36946998:+_ENSMUSG00000024811_ENSMUST00000025729|mus_hu|motif|central (ssRNA)
RNA: GGGAGUUCUACAGUCCGACGAUCAUAUUUUCCUUUUGCUGCUGCUUCAUGUAAAGGUGUAAAUUUCCAUAAAUCAGCGGCAUUAACGGCUGCUCCAUGUUUAACAAGAAGUUCUGCAACUUCAUAAUGUCCAUAAGAACAUGCCAACAGAGGAUUGAGCAUCA
B3: 45705241_45705361_2046_CDS_ENSMUSG00000023944_ENSMUST00000024739|mouse|control|control (ssRNA)
RNA: GGGAGUUCUACAGUCCGACGAUCACCAGAGGAGAGCAGAGCAGUUUCAAACAGCAGCACCACCAGGUCCUUGACAGCUUUGUCGUUUUUGUCUGCCUCAGCCUUCUGCCGCAGGGUCUCCACGAUGGGGUGGUCAGGGUUGAUCAACAGAGGAUUGAGCAUCA
B4: 87490901_87491657_411_3pUTR_ENSMUSG00000025613_ENSMUST00000026704|mouse|control|control (ssRNA)
RNA: GGGAGUUCUACAGUCCGACGAUCCGAUAUUACCUCUGAUACUGACAGGCCAAUCCUCAGAAGUUCUUCAGCUAGUUCCAGAAGAGCCCCAGCGAACACCAGAACGAAGUUUGUGCCAUCACCAACCUCUUGUUCUUGCAUAUGCAACAGAGGAUUGAGCAUCA
B5: chr6:114281168:114281169:-_ENSG00000196591_ENST00000368632|hu_hu|hu_hu_hu_mus_True|68_78 (ssRNA)
RNA: GGGAGUUCUACAGUCCGACGAUCUUCCAUUUUUCGGUAUAAACCAUAAUUUAGCAGCAAGUUAUGGGUCAUGCGGAUUCUAUGAGGCUUCAUGGGAUGACCCUGGCCAUAAUAAUAAUUGCCAAUAUCACCAUCAUAGUAGUACAACAGAGGAUUGAGCAUCA
B6: 72853506_72853626_654_CDS_ENSMUSG00000034563_ENSMUST00000085350|mouse|control|control (ssRNA)
RNA: GGGAGUUCUACAGUCCGACGAUCAAAGUGGCGUUUACUUGGCUCCUUGGAGGGCUCAUCUUCCGGCUCAGCGAGUGGAGGCUCCUCAGACUCUGAGAUAGAAACGGUCUUCUUCCUGUUGCGGCGCCGUCUAGGAGCAGGGCUCAACAGAGGAUUGAGCAUCA
B7: chr5:67447025:67447026:+_ENSMUSG00000037736_ENSMUST00000038188|mus_hu|FALSE|FALSE (ssRNA)
RNA: GGGAGUUCUACAGUCCGACGAUCCUGCACCUAUAUGGAACCCACAUGCAAAGAACCCAUCUAGCAUGUAAUAAAUAAUCGCUAGCCAUACUCAAUAAGACACGGAAAAAUUAUUGCUUACAUAACAGAAAAACAUCUACUUGACAACAGAGGAUUGAGCAUCA
B8: chr8:74858975:74858976:-_ENSG00000154582_ENST00000284811|hu_mus|hu_hu_hu_mus_True|38_68 (ssRNA)
RNA: GGGAGUUCUACAGUCCGACGAUCGACCUUGUAGGUAAAAUACAUGCACACUUUUGAUAGCACAUGUGAAGGUAUCUCUCUAAAAUUGACCUCGUUGGUUUCGUUCUCAGCAAACUGACCUGGACCACUCAACAUAGCCUUUAUCAACAGAGGAUUGAGCAUCA
B9: chr7:140404665:140404666:+_ENSG00000090266_ENST00000247866|hu_hu|hu_hu_hu_mus_False|28_28 (ssRNA)
RNA: GGGAGUUCUACAGUCCGACGAUCUGCUCCUACUCGUCCAGAGAGUUUACAGUGUCAGUCCUCGUCAUCAGGAGGGAUUCCCAGUUCUUCAUCUGUCCACUGUGAAGGAUCAGGAUAUGAAAAGUGACCCAGCACAGCAUCCGACAACAGAGGAUUGAGCAUCA
B10: chr6:29525140:29525141:-_ENSMUSG00000012535_ENSMUST00000012679|mus_mus|FALSE|FALSE (ssRNA)
RNA: GGGAGUUCUACAGUCCGACGAUCAUUGGUUUUGUAUAAAUGUUCUCCUAGUCGGUACCAAAAGUUAAAGGAAAUUUCUACUACCUCAUACUGAGGGUGGCCUGCACAGAUAAGAAGCAAUUCCAAAGUUCGAAGAUCUCCCAGCAACAGAGGAUUGAGCAUCA
B11: chr8:72619372:72619373:-_ENSMUSG00000002341_ENSMUST00000002412|mus_mus|motif|central (ssRNA)
RNA: GGGAGUUCUACAGUCCGACGAUCAAUAAAACCAAAGAAGGCUGGGCAGACAGUUCGCUGAGUUCCAGGUUAGCCUGGUCGGUAUAGCAAGUUCCAGGCCAGCCAGGGCCGCACAGUGAGGCCCUGUCUCAAAACAAAAACAACCAACAGAGGAUUGAGCAUCA
B12: 100652165_100655875_1851_CDS_ENSMUSG00000020919_ENSMUST00000004143|mouse|control|control (ssRNA)
RNA: GGGAGUUCUACAGUCCGACGAUCCAAGCCCCGGUUGCUCUGUACUUCAGCCUUGAAUUUCAUGUUGAGCGCUUCACACAGCUGCGGCCACAGCACCUUGUCAGGCACGGCAAAUGGCACCCUGCCAGGCUCUGCAAAGGCGUUCAACAGAGGAUUGAGCAUCA
B13: chrX:70347820:70347821:+_ENSG00000184634_ENST00000374080|hu_hu|FALSE|FALSE (ssRNA)
RNA: GGGAGUUCUACAGUCCGACGAUCUAGCCCCGUGUAGGUGAAGGUGUGAGCUGCAGGGUUCUCUAGAGUGUCGAUCAUGAACUCAGGUGCCCAGCGCAUAUUUGAUUCCGAUGGCUCCACGUUGCAGUAGAUGGUGUUCUUCACCAACAGAGGAUUGAGCAUCA
B14: chr1:22412998:22412999:+_ENSG00000070831_ENST00000400259|hu_hu|FALSE|FALSE (ssRNA)
RNA: GGGAGUUCUACAGUCCGACGAUCUAUCUCAGGCACCCACUUUUCUUUCACGUUUUCAAAUGAAGAUGGAGAGACCACUGAAAAACAGACUAGAAAUACAUCUGUUUGUGGAUAACUCAGCGGUCGUAAUCUGUCAUAAUCCUCCAACAGAGGAUUGAGCAUCA
B15: chr7:54825262:54825263:-_ENSG00000132432_ENST00000352861|hu_hu|hu_hu_hu_mus_False|88_108 (ssRNA)
RNA: GGGAGUUCUACAGUCCGACGAUCCUGACUUGGCUCAUCCACAAACUUUACCUGAUCAUCCAUGUUUGUUGGAUGGCGGAUUGAGAGCGUAGAGACACGUAGCUCAGGAGAGAACCGAGCCCAACGGAACCGGAAGCUGGCAACCAACAGAGGAUUGAGCAUCA
B16: 191745816_191745936_317_CDS_ENSG00000115419_ENST00000338435|human|control|control (ssRNA)
RNA: GGGAGUUCUACAGUCCGACGAUCUCCCCCGCCUCGGGGACGCCGGCACAGGGUGACCAAGGGCUGUGCCCGCCGCAGAGUCGCGCUCACGCCGGCGGGCGACCGCAGGAGCAGGUCCCGCAGCAUCCCCGAGCCUCGCAGCCGCAACAGAGGAUUGAGCAUCA
B17: chr11:20126016:20126017:+_ENSMUSG00000020149_ENSMUST00000020358|mus_mus|FALSE|FALSE (ssRNA)
RNA: GGGAGUUCUACAGUCCGACGAUCGGGAAAAAAGCCAGGCGUGGCGGCGCACACCUUCAGUCUCAGCACUCAGAGACAGAGCUAGGUGGAUCCCUGAGUUCGAGGCCAGCCUGGUCUACAGAGAGAGUUCCAGGACAGCCAGGGCAACAGAGGAUUGAGCAUCA
B18: chr5:179004091:179004092:+_ENSG00000176783_ENST00000393438|hu_hu|motif|central (ssRNA)
RNA: GGGAGUUCUACAGUCCGACGAUCUUCAUGCUCCUUGCCACCAUCAAGAUCCUGCACAUCCUUAAGGUAGAGGGAAAAAUCGGUUACUCCAACCUGAGAAUCCAAGUCUUCUCCUUUCAAGCAGAGAUUGGCAUCGAGAACAUUCAACAGAGGAUUGAGCAUCA
B19: chr22:19452774:19452775:-_ENSG00000070010_ENST00000399523|hu_hu|hu_hu_hu_mus_False|68_88 (ssRNA)
RNA: GGGAGUUCUACAGUCCGACGAUCCUUCUCAUUGUAGUUGAUAGCAAUCACAUCCCCAGUCGUCAGACAGGCAAAGUUUCUCAAUGCAUUUUCUAAUACCGCUUUAGGGUUGGUAAUAUCCAGGAAGUCUGGGCUCUGAGGCUGCAACAGAGGAUUGAGCAUCA
B20: chr16:8843268:8843269:+_ENSMUSG00000022507_ENSMUST00000023150|perfect_dup|FALSE|FALSE (ssRNA)
RNA: GGGAGUUCUACAGUCCGACGAUCACCAUGCAGAGCUAUGGCUUCCCGGAAGGGUUGCAAAUCAGUCUCUACAGAUGAGCUAGUUUCCGUUGAAGUAGCUCGGUUAGGGGACACUACAGUCAGUCUUGGGGGAGCUCUAGAGUUCAACAGAGGAUUGAGCAUCA
B21: chr1:60041781:60041782:+_ENSMUSG00000041040_ENSMUST00000036540|mus_hu|mus_mus_mus_hu_False|28_28 (ssRNA)
RNA: GGGAGUUCUACAGUCCGACGAUCAAGUUUACAAUAGUAAAGUAAAUGCAGUAGUGGCAAAUUUUCUUUUAUUUUCCUUCACAAAAGAAAAUCUUUAUAACCCAGUCCAAUCCCAGAACAUAGUGAAAGCUAUAAAUUCUGACUCAACAGAGGAUUGAGCAUCA
B22: chr4:115894766:115894767:+_ENSMUSG00000028698_ENSMUST00000030464|mus_hu|mus_mus_mus_hu_True|28_38 (ssRNA)
RNA: GGGAGUUCUACAGUCCGACGAUCUUCCACACGGAAAUGUACUUCGGGUUUUCCAACGGCCAGUACCAGUCCGGCCAAACUACCCGAACAGGGUCCUGUCCUCCUCUUCUCUCCUCCACAACAAAAUGCCCCCGAACUUUCAAGCAACAGAGGAUUGAGCAUCA

This experiment deals with T1, UNK ZnF1-3. Put plainly: nsRBNS (natural sequence RNA bind-n-seq); RBNS binding buffer (assumed for nsRBNS): 25 mM Tris pH 7.5, 150 mM KCl, 3 mM MgCl2, 0.01% Triton X-100, 500 ug/ml BSA, 20 U/ml SUPERase-In, 4 C; UNK is unkempt and MSI1 is Musashi-1; names of the RNAs are library labels; protein concentration not given here; high values mean tight binding.
B1: the binding signal came out at 1.24 enrichment R.

B2 yielded a binding signal of 0.707 enrichment R.

In the case of B3, the binding signal was found to be 1.85 enrichment R.

Molecule B4 returned a binding signal of 0.926 enrichment R.

With B5, the binding signal amounted to 1.05 enrichment R.

Turning to B6, the binding signal is 0.828 enrichment R.

For B7, the binding signal worked out at 1.42 enrichment R.

B8: the binding signal is 0.642 enrichment R.

The molecule B9 displayed a binding signal of 1.2 enrichment R.

B10 registered a binding signal of 1.11 enrichment R.

Take B11: the binding signal was determined as 0.712 enrichment R.

With B12, the binding signal amounted to 0.799 enrichment R.

As to B13, the binding signal was 1.16 enrichment R.

Molecule B14 returned a binding signal of 1.03 enrichment R.

For B15, the binding signal is 1.05 enrichment R.

B16 came in with a binding signal of 0.638 enrichment R.

Molecule B17 showed a binding signal of 0.845 enrichment R.

In turn, B18 displayed a binding signal of 1.71 enrichment R.

In the case of B19, the binding signal is 0.899 enrichment R.

With B20, the binding signal amounted to 1.72 enrichment R.

B21 had a binding signal of 0.464 enrichment R.

The molecule B22 came in with a binding signal of 1.04 enrichment R.
